Out of some 310,000 compounds screened, about 2,200 (0.71%) showed an effect of 50% or more. The effect is printed as a negative number. The list shows a part of the results.
Target: human ether-à-go-go-related gene (hERG) potassium channel (human, UniProt Q12809)
Test: primary screen, population patch clamp on CHO cells stably expressing hERG

Chain of human ether-à-go-go-related gene (hERG) potassium channel (Q12809 whole entry, looked up): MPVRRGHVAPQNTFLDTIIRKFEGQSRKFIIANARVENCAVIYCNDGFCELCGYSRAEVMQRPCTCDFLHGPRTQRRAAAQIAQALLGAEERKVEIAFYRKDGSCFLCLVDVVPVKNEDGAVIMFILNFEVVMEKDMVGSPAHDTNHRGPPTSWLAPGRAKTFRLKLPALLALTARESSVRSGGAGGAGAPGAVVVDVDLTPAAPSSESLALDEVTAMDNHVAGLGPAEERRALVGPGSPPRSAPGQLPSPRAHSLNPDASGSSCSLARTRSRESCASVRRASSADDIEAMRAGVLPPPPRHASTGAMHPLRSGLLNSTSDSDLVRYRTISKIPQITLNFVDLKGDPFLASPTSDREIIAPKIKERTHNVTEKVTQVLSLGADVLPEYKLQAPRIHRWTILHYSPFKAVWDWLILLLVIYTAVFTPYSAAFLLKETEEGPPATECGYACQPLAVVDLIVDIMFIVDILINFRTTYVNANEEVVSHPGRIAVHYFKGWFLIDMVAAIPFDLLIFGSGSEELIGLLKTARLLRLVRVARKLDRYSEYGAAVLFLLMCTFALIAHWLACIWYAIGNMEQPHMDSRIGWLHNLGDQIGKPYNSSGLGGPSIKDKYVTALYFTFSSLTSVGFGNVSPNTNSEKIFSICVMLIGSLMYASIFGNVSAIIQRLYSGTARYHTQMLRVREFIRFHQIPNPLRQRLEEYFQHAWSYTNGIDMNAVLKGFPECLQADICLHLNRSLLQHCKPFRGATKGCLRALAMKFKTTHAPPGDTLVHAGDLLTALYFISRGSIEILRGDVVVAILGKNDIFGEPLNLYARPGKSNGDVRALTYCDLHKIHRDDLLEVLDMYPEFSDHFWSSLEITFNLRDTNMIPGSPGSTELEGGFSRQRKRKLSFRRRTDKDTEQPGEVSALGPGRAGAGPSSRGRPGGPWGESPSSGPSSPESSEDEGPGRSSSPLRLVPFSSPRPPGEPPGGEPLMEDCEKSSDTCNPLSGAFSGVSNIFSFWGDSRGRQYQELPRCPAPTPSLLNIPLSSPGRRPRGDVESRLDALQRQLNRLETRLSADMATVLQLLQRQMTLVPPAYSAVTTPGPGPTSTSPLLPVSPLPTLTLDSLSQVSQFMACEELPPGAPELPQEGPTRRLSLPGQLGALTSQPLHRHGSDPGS

Row | Compound | hERG current change (%, negative = inhibition) at 1uM [%]
1 | COc1ccc2[nH]c(C)c(C(=O)CN3CC(C)OC(C)C3)c2c1 (stereo not drawn) | 5.05
2 | COc1ccc2c3c([nH]c2c1)[C@H]1C[C@H]2[C@H](C[C@@H](O)[C@H](OC)[C@H]2C(=O)O)CN1CC3.Cl | -1.84
3 | CC(C)(CNc1ccc([N+](=O)[O-])cc1Cl)CNS(C)(=O)=O | 7.18
4 | CCCCC(=O)Nc1nnc(SCC(=O)N2CCN(c3ccccc3OC)CC2)s1 | 2.5
5 | CCOc1cccc(CN(C)CC2CCCN(CCc3ccc(Cl)cc3)C2)c1O (stereo not drawn) | 1.13
6 | CCOc1ccccc1N(CC(=O)NC1CCCCC1)S(C)(=O)=O | 4.23
7 | COC(=O)c1cnc(Oc2c(Cl)cc(N)cc2Cl)cc1C(F)(F)F | 22.8
8 | Cc1ccc(NC(=O)CC(C)S(=O)(=O)c2ccc3c(c2)NC(=O)CO3)cc1C (stereo not drawn) | 15.6
9 | COc1ccc(/C=C/C(=O)O)cc1S(=O)(=O)N1CCCC1 | 5.99
10 | COC(=O)c1cc(=O)n(CCc2ccccc2)c(=Nc2ccc(F)cc2)s1 | 15.2
11 | O=C1NC(=S)N/C1=C/c1cccc([N+](=O)[O-])c1O | 12.3
12 | CSc1c(C#N)c(N)nc2sc(C(=O)c3ccc(Cl)c(Cl)c3)c(N)c12 | -0.345
13 | CCN(c1ccccc1C)S(=O)(=O)c1cc2c3c(c1)CCC(=O)N3CCC2 | 10.7
14 | O=C(NCCOc1ccccc1F)C1CCC(=O)N(CCc2cccc(F)c2)C1 (stereo not drawn) | -6.97
15 | O=C(/C=C/c1ccccn1)c1ccc(Br)cc1O | 14.2
16 | O=C(Nc1nnc(CC2=CCCCC2)s1)Nc1ccccc1F | 1.57
17 | COc1ccc(N2CC(C(=O)Nc3ccc(S(=O)(=O)Nc4nc(C)cc(C)n4)cc3)CC2=O)cc1 (stereo not drawn) | 8.03
18 | O=C1N=C(c2ccccc2)C(c2ccccc2)N1 (stereo not drawn) | 0.749
19 | CCN1C(=O)S/C(=C/c2ccc(Sc3nc4ccccc4[nH]3)o2)C1=O | 9.65
20 | COc1cc(S(=O)(=O)Nc2cccnc2)ccc1Cl | 9.5
21 | COC(=O)c1ccc(NC(=O)CO/N=C2\CCCc3nonc32)cc1 | 10.1
22 | CC(=O)Nc1ccc(NC(=O)c2ccc3c(c2)CCN3S(C)(=O)=O)cc1 | 11.9
23 | CCCCC12CN3CCN(CC(C3)/C1=N\NC(=O)Nc1ccccc1)C2 | 6.63
24 | CN(C)CCCNc1ccc(S(N)(=O)=O)cc1[N+](=O)[O-] | -4.9
